In PubChem BioAssay AID686978 (National Center for Advancing Translational Sciences (NCATS), 2013):
The campaign covered roughly 420,000 compounds. About 64,000 (15%) were called active. The shares of active, inactive and inconclusive entries below differ from those in the screen. The call rests on the fitted dose curve; in most records, active means well fitted inhibition curve with a large enough effect; inconclusive means small, poorly fitted or top-dose-only effect; inactive means flat fitted curve, though single readings scatter. No potency is given beside an inconclusive call; the fits are too rough.

Test: qHTS for Inhibitors of human tyrosyl-DNA phosphodiesterase 1 (TDP1): qHTS in cells in absence of CPT; further: nearly all actives have a fitted effect of over 55% in size
Settings: DT40 Tdp1-/- hTDP1 cells, no CPT, ATP luminescence, 48 h; activity change, negative = growth inhibition: at 46.2 µM (top of the series) unless noted
Method in brief: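 Seeded 400 DT40-hTDP1 cells/well (vehicle DMSO, no 20 nM CPT); pinned compounds; ≥48 hr at 37 °C; CellTiter-Glo luminescence as viability measure.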
On the % scale 0 is the no-effect control and ±100 the full control effect; potency means the concentration at half of the fitted maximal effect; tags describe the fitted curve by direction and shape.

Structure (SMILES) | Potency | activity change, negative = growth inhibition
Cc1[nH]c2ccccc2c1C(=O)C(=O)Nc1ccc2c(c1)OCO2 | inconclusive [inhibitor, single point] | 
N#Cc1ccc(NC(=O)N2CCC(c3nc4c(nnn4Cc4cccc(Cl)c4)c(=O)[nH]3)CC2)cc1 | inconclusive [inhibitor, single point] | 
CCOc1ccc(NC(=S)Nc2ccc(F)cc2)cc1 | inconclusive [inhibitor, partial curve] | 
COc1ccccc1/C=C1\SC(=O)N(CCC(=O)NCCCn2ccnc2)C1=O | inconclusive [inhibitor, single point] | 
CN1CCN(c2ccc(S(=O)(=O)N3CCCCC3)cc2NC(=O)/C=C/c2ccc(Cl)c([N+](=O)[O-])c2)CC1 | inconclusive [inhibitor, single point] | 
CC(C)n1nccc1N(Cc1ccc(Br)cc1)S(=O)(=O)c1ccccc1 | inconclusive [inhibitor, single point] | 
COc1ccc(N2CCN(c3nc4cc(C)ccc4cc3C=O)CC2)cc1 | inconclusive [inhibitor, single point] | 
O=C(Nc1ccccc1F)C1CCN(S(=O)(=O)c2cccnc2)CC1 |  | inactive: 3.31%
Cc1cccc(N2CCN(c3ccc(NC(=O)c4ccccc4)cc3C(=O)O)CC2C)c1 (centres undefined) |  | inactive: -7.59%
C=CCN1C(=O)c2ccc(C(=O)N(C)CC(=O)Nc3c(C)cccc3C)cc2C1=O |  | inactive: 2.91%
O=C(CN1C(=O)c2ccccc2C1=O)NCC1Cc2cccc(-c3ncccn3)c2O1 (centres undefined) |  | inactive: -11.2%
CN(Cc1nc(-c2ccncc2)no1)S(=O)(=O)c1ccccc1 | inconclusive [inhibitor, single point] | 
COc1ccc(-c2noc(CSc3nc(N)cc(=O)[nH]3)n2)cc1 | active: 18.4 µM | 
Cc1nc(C)c(C(=O)O)c(-c2cccs2)c1C(=O)O |  | inactive: -19.2%
CC1CCN(S(=O)(=O)c2ccc(NC(=O)CN3CCCCCC3)cc2)CC1 | inconclusive [inhibitor, single point] | 
O=C(NCc1ccc(F)cc1)c1ccc2c(c1)nc1n2CCCCC1 | inconclusive [inhibitor, full curve, poor fit] | 
COc1ccccc1NC(=S)N(Cc1ccccc1)Cc1ccccn1 | inconclusive [inhibitor, single point] | 
COc1ccc(NC(=O)C2=Cc3ccccc3OC2)cc1 |  | inconclusive: -30.1% [inhibitor]
COc1cc2c(cc1OC)C(=O)NCC(C)(C)O2 |  | inactive: -7.76%
Cc1ccc(C)c2[nH]c(=O)c(CN(Cc3cccnc3)C(=S)NCc3ccco3)cc12 | inconclusive [inhibitor, single point] | 
CCC(NC(=O)c1ccccc1NC(=O)c1ccccc1)C(=O)NNC(=O)CSc1nc2ccccc2o1 (centres undefined) | inconclusive [inhibitor, single point] | 
CCOc1ccccc1C(=O)Nc1ccc2nc3c(c(Nc4ccc(OC)c(OC)c4)c2c1)CCCC3 | active: 5.17 µM | 
COCCn1nnnc1CN(CCc1ccccc1)Cc1cc2cc(OC)ccc2[nH]c1=O |  | inactive: -17.8%

Structure (SMILES) | Potency | activity change, negative = growth inhibition
Cc1cc(C)c(CN2CCN(C(=O)CC[C@H]3O[C@@H](n4cnc5c(NC(=O)c6ccccc6)ncnc54)[C@H](O)[C@@H]3O)CC2)c(C)c1 | inconclusive [inhibitor, single point] | 
CCN(CC)C(=O)c1cccc(-c2csc(C(NC(C)=O)c3cccc(OC)c3)n2)c1 (centres undefined) | inconclusive [inhibitor, single point] | 
Cc1ccc(C)c(NC(=O)c2cc(-c3ccccc3)nn2-c2ccccc2)c1 | inconclusive [inhibitor, partial curve, poor fit] | 
CCOC(=O)c1ccc(NC(=O)CN2Cc3ccccc3C2=O)cc1 |  | inactive: -16.1%
CCOC(=O)N1CCN(C(=O)C[C@@H]2C[C@@]3(C(=O)OCC)CCCC=C3N(Cc3ccccc3)C2=O)CC1 | inconclusive [inhibitor, single point] | 
O=C(C1CCCN(S(=O)(=O)c2ccccc2)C1)N1CCCCCC1 (centres undefined) | active: 16.4 µM | 
C(=C\c1cnc2ccccc2n1)/c1ccc2c(c1)OCO2 | inconclusive [inhibitor, partial curve] | 
CCN1CCN(CCCNC(=O)CCC(=O)N2CCOc3ccc(Cl)cc32)CC1 |  | inactive: 7.55%
CCOC(=O)C1C(=O)C=C(c2cccc(NS(C)(=O)=O)c2)CC1c1ccco1 (centres undefined) | inconclusive [inhibitor, partial curve] | 
COc1ccc(-c2noc(-c3nnn(-c4ccc(C(C)C)cc4)c3C)n2)cc1OC | inconclusive [inhibitor, single point] | 
Cc1cc(O)c2c(C)c(CC(=O)N3CCCCC3)c(=O)oc2c1 | inconclusive [inhibitor, single point] | 
N#CC1=C(c2ccc(-c3ccccc3)cc2)COC1=O |  | inactive: -29.3%
CCCS(=O)(=O)N1CCC(N2CCN(Cc3ccc(F)cc3)C(=O)C2=O)CC1 |  | inactive: -0.0289%
O=C(O)C1CCCCC1C(=O)NCCc1cccc(Cl)c1 (centres undefined) |  | inactive: -5.35%
CN(C)C(=O)c1ccc(-c2ccc3ncnc(Nc4ccc(F)cc4)c3c2)cc1 | inconclusive [inhibitor, full curve] | 
COc1cc(C(=O)NC(=S)Nc2ccc(Cc3ccncc3)cc2)cc(OC)c1OC | inconclusive [inhibitor, partial curve] | 
O=C(Nc1ccccc1)c1ccc2c(O)c(S(=O)(=O)c3ccc(Cl)cc3)c(=O)[nH]c2c1 |  | inactive: 1.27%
Cc1ccc(C)n1-c1ccc(C(=O)Nc2ccccc2)cc1 | active: 25.9 µM | 
O=C(C1CC1)N(Cc1nc2ccccc2c(=O)[nH]1)Cc1cccs1 | inconclusive [inhibitor, single point] | 
CCn1cc(C(=O)N2CCN(c3ccc(OC)cc3)CC2)c2cc(OC)c(OC)cc2c1=O | inactive | 
CCOc1ccccc1C1C(C(=O)Nc2ccccc2)=C(C)Nc2c(C(=O)Nc3ccc(F)cc3)cnn21 (centres undefined) | inconclusive [inhibitor, single point] | 
O=C(c1cnccn1)N1CCC2(CCCN(C(c3ccccc3)c3ccccc3)C2)CC1 | inconclusive [inhibitor, single point] | 
C/C(=N\Nc1cccc([N+](=O)[O-])c1)c1cc(F)ccc1O | active: 13 µM | 

Structure (SMILES) | Potency | activity change, negative = growth inhibition
CCOc1ccc(CCNC(=O)COC(=O)c2cccs2)cc1OCC |  | inactive: -10.8%
O=[N+]([O-])c1ccc(Cl)c(CN2CCN(c3ncccn3)CC2)c1 |  | inactive: -18.8%
Cc1nnc(SCC(=O)Nc2cccnc2Cl)s1 |  | inactive: 3.35%
CN(C)CC1CCCCC1C1(O)c2ccccc2CSc2sccc21 (centres undefined) | inconclusive [inhibitor, partial curve, poor fit] | 
Cc1ccc(S(=O)(=O)N2CCN(C(=O)c3n[nH]c(=O)c4ccccc34)CC2)c(C)c1 | inconclusive [inhibitor, partial curve] | 
COc1cc(OC)c([N+](=O)[O-])cc1/C=N/NC(=O)c1ccncc1 | inconclusive [inhibitor, single point] | 
COc1ccc(OC)c(NC(=O)COc2coc(CN3CCCc4ccccc43)cc2=O)c1 | inconclusive [inhibitor, single point] | 
Cc1c(Cl)cccc1NC(=O)Nc1c(C)n(C)n(-c2ccccc2)c1=O |  | inactive: -1.24%
Cc1nn(CC(=O)Nc2ccc(Cl)cn2)c(C)c1Br | inconclusive [inhibitor, single point] | 
CN1CCN(c2ncc3nc(CCc4ccccc4)c(=O)n(CCC#N)c3n2)CC1 | inconclusive [inhibitor, single point] | 
COC(=O)C1C(c2ccc(OC)cc2)C(C(=O)OC)S(=O)(=O)C(CCN2CCCCC2)S1(=O)=O (centres undefined) |  | inactive: 4.3%
CCOc1ccc(/C=N/Nc2cc(=O)n(C)c(=O)n2C)cc1 | inconclusive [inhibitor, partial curve] | 
Cc1ccc(S(=O)(=O)NCC(Nc2cccc(Cl)c2)c2ccccc2)cc1 (centres undefined) | inconclusive [inhibitor, single point] | 
Cc1sc2ccccc2c1CNC[C@H]1O[C@@H](n2ccc(=O)[nH]c2=O)[C@H](O)[C@@H]1O |  | inactive: 1.3%
COc1ccc(C(C#N)N2N=C(c3ccccc3)CC2c2ccccc2)cc1OC (centres undefined) | inconclusive [inhibitor, single point] | 
O=C(Nc1cc(-c2ccccc2)nn1-c1ccccc1F)c1ccc([N+](=O)[O-])cc1 | inconclusive [inhibitor, single point] | 
O=C(c1ccco1)c1n[nH]nc1-c1ccccc1 | inconclusive [inhibitor, partial curve] | 
N=c1c(C(=O)NC2CCCC2)cc2c(=O)n3ccccc3nc2n1C1CCCCC1 |  | inactive: -14.5%
Cc1ccc(CN(C)CC(=O)Nc2ccc3c(c2)CCC3)cc1 | inconclusive [inhibitor, single point] | 
O=S(=O)(c1ccc2nc(Nc3cccc(F)c3)ccc2c1)N1CCCC1 | inconclusive [inhibitor, single point] | 
Cc1nc(SCc2ccc(O)c([N+](=O)[O-])c2)c([N+](=O)[O-])[nH]1 | active: 20.6 µM | 
NS(=O)(=O)c1ccc(NCc2ccccc2OCc2ccccc2F)cc1 | inconclusive [inhibitor, partial curve] | 
CC(C)=CCC/C(C)=C/CNC(=O)C[C@H]1C[C@H](C(=O)N2CCOCC2)[C@@]2(CCC3CCCC3)c3[nH]c4cc(CCC(=O)N(C)C)ccc4c3CCN2C1=O | active: 6.51 µM | 
